Laboratory results from patent US8586505B2 (SDS Biotech K. K., priority 2009, dated 2013).

Legend:
[1] = tested on: Tetranychus urticae female adults; experiment: whole plant or invertebrate; settings: 48 h, read-out: Determination (mortality rate)
Experimental: A kidney bean leaf section having a diameter of 3 cm was placed on a wet sponge in a plastic cup. Thereafter, ten female adults of Tetranychus urticae were released into the plastic cup. 0.4 ml each of an agent solution prepared by diluting a 10% wettable powder of each compound shown in Table 1 to a concentration of 250 ppm was sprayed thereto. Two days later, the number of deaths was counted, and the mortality rate was then calculated.

Aphis gossypii = experiment: whole plant or invertebrate; settings: in Cucumis sativus, 48 h, read-out: Determination (mortality rate)
Experimental: A cucumber leaf section having a diameter of 3 cm was placed on a wet sponge in a plastic cup. Thereafter, five female adults of Aphis gossypii were released into the plastic cup, and they were then left at rest overnight. Thereafter, the number of new-born larvae was counted. 0.4 ml each of an agent solution prepared by diluting a 10% wettable powder of each compound shown in Table 1 to a concentration of 250 ppm was sprayed thereto. Two days later, the number of deaths was counted, and the mortality rate was then calculated.

Row | Compound | mortality at 250 ppm [1] [%] | mortality at 250 ppm (Aphis gossypii) [%]
1 | COCc1ccc(C#CCCNc2ncnc3ccccc23)cc1 [compound 136] | > 95 | 
2 | CC(CC#Cc1ccc(Cl)cc1C(F)(F)F)Nc1ncnc2cccc(Cl)c12 (stereo not drawn) [compound 350] | > 95 | 80 to 95
3 | Cc1ccc(C#CCCNc2ncnc3ccccc23)s1 [compound 206] | 80 to 95 | > 95
4 | CC(CC#Cc1ccc(Cl)cc1C(F)(F)F)Nc1ncnc(C(C)Cl)c1Cl (stereo not drawn) [compound 383] | > 95 | > 95
5 | O=[N+]([O-])c1ccccc1C#CCCNc1ncnc2sccc12 [compound 38] | 60 to 80 | 
6 | CC(CC#Cc1ccccc1C(F)(F)F)Nc1ncnc2sccc12 (stereo not drawn) [compound 233] | 80 to 95 | > 95
7 | CC(CC#Cc1ccc(S(F)(F)(F)(F)F)cc1Cl)Nc1ncnc2sccc12 (stereo not drawn) [compound 253] | 80 to 95 | 60 to 80
8 | CCOC(=O)C(CC#Cc1ccccc1C(F)(F)F)Nc1ncnc2ccccc12 (stereo not drawn) [compound 304] | > 95 | > 95
9 | C=C(C#CCCNc1ncnc2ccccc12)c1ccccc1 [compound 95] | > 95 | 
10 | CCc1ccc(C#CCC(C)Nc2ncnc3sccc23)cc1 (stereo not drawn) [compound 240] | > 95 | > 95
11 | COCc1ccccc1C#CCCNc1ncnc2ccc(-c3ccccc3)cc12 [compound 333] | > 95 | > 95
12 | Cc1ncnc(NC(C)CC#Cc2ccc(Cl)cc2C(F)(F)F)c1Cl (stereo not drawn) [compound 385] | > 95 | > 95
13 | CC(CC#Cc1ccc(Cl)cc1C(F)(F)F)Nc1ncnc2c(C(F)(F)F)cccc12 (stereo not drawn) [compound 351] | > 95 | > 95
14 | C(#Cc1ccsc1)CCNc1ncnc2ccccc12 [compound 205] | 60 to 80 | 80 to 95
15 | Cc1ccc(C#CCC(C)Nc2ncnc3sccc23)c(C)c1 (stereo not drawn) [compound 259] | > 95 | > 95
16 | CNC(=O)c1ccc(C#CCCNc2ncnc3ccccc23)cc1 [compound 126] | 60 to 80 | 
17 | C(#Cc1ccccc1C1OCCO1)CCNc1ncnc2ccccc12 [compound 155] | 60 to 80 | 60 to 80
18 | CC(CC#Cc1ccc(C(F)(C(F)(F)F)C(F)(F)F)cc1Cl)Nc1ncnc2ccccc12 (stereo not drawn) [compound 281] | > 95 | > 95
19 | CC(CC#Cc1ccc(Cl)cc1C(F)(F)F)Nc1ncnc2cccc(F)c12 (stereo not drawn) [compound 346] | > 95 | > 95
20 | Cc1ncnc(NC(C)CC#Cc2ccc(Cl)cc2C(F)(F)F)c1I (stereo not drawn) [compound 386] | > 95 | > 95
21 | O=C(O)c1ccc(C#CCCNc2ncnc3ccccc23)cc1 [compound 127] | 60 to 80 | 

Row | Compound | mortality at 250 ppm [1] [%] | mortality at 250 ppm (Aphis gossypii) [%]
22 | Cc1cc(C)c(C#CCCNc2ncnc3ccccc23)c(C)c1 [compound 181] | > 95 | > 95
23 | CC(F)c1ncnc(NCCC#Cc2ccccc2)c1Cl (stereo not drawn) [compound 376] | > 95 | > 95
24 | Cc1c(Cl)ncnc1NCCC#Cc1ccccc1 [compound 356] | 80 to 95 | 
25 | Ic1ccc(C#CCCNc2ncnc3ccccc23)cc1 [compound 98] | 60 to 80 | 60 to 80
26 | Cc1cc(F)ccc1C#CCC(C)Nc1ncnc2sccc12 (stereo not drawn) [compound 246] | 80 to 95 | > 95
27 | FC(F)(F)c1ccc(C#CCCNc2ncnc3ccccc23)c(Cl)c1 [compound 182] | 60 to 80 | 60 to 80
28 | COCc1ccccc1C#CCCNc1ncnc2scc(C)c12 [compound 51] | > 95 | 
29 | COCc1ccccc1C#CCCNc1ncnc(C)c1Cl [compound 362] | > 95 | > 95
30 | CN1C(=O)c2ccc(C#CCCNc3ncnc4sccc34)cc2C1=O [compound 84] | 60 to 80 | 
31 | COCc1ccccc1C#CCCNc1ncnc2sccc12 [compound 45] | 60 to 80 | > 95
32 | N#Cc1ccc(C#CCCNc2ncnc3sccc23)cc1 [compound 37] |  | 60 to 80
33 | CC(CC#Cc1ccc(C(C)C)cc1)Nc1ncnc2sccc12 (stereo not drawn) [compound 241] | 80 to 95 | > 95
34 | COc1ccccc1C#CCC(C)Nc1ncnc2ccccc12 (stereo not drawn) [compound 276] |  | 80 to 95
35 | C#CCOCc1nc(C#CCCNc2ncnc3sccc23)cs1 [compound 74] |  | 60 to 80
36 | CC(CC#Cc1ccccc1)Nc1ncnc2ccccc12 (stereo not drawn) [compound 270] |  | > 95
37 | FC(F)(F)c1ccccc1C#CCCNc1ncnc2ccc(Cl)cc12 [compound 309] |  | 60 to 80
38 | N#Cc1ccccc1Oc1nc(C#CCCNc2ncnc3ccccc23)cs1 [compound 221] |  | 60 to 80
39 | CSCc1ccccc1C#CCCNc1ncnc2ccccc12 [compound 152] |  | 60 to 80
40 | CC(CC#Cc1ccc(C(F)(F)F)cc1C(F)(F)F)Nc1ncnc2ccccc12 (stereo not drawn) [compound 280] |  | > 95
41 | COCc1ccccc1C#CCCNc1ncnc2ccc(C)cc12 [compound 326] |  | > 95
42 | COCc1ccccc1C#CCCNc1ncnc(Cl)c1Cl [compound 365] |  | > 95

Row | Compound | mortality at 250 ppm [1] [%] | mortality at 250 ppm (Aphis gossypii) [%]
43 | CC(C)CC#CCCNc1ncnc2sccc12 [compound 7, 4-(6-Methyl-3-heptynylamino)thieno[2,3-d]pyrimidine] |  | > 95
44 | C#CCC(Nc1ncnc2ccccc12)c1ccccc1 (stereo not drawn) [compound 300, 4-[(1-Phenyl-3-butynyl)amino]quinazoline] |  | > 95
45 | CC(CC#Cc1ccccc1CO)Nc1ncnc2sccc12 (stereo not drawn) [compound 243] |  | > 95
46 | FC(F)(F)c1ccccc1C#CCCNc1ncnc2sccc12 [compound 25] |  | 60 to 80
47 | C[Si](C)(C)C#CCCNc1ncnc2ccccc12 [compound 87] |  | > 95
48 | Cc1ccccc1C#CCCNc1ncnc2sccc12 [compound 17] |  | 80 to 95
49 | Cc1ccsc1C#CCCNc1ncnc2ccccc12 [compound 208] |  | > 95
50 | CC(CC#Cc1ccccc1)Nc1ncnc2sccc12 (stereo not drawn) [compound 229] |  | > 95
51 | FC(F)(F)Oc1cccc(C#CCCNc2ncnc3sccc23)c1 [compound 33] |  | 60 to 80
52 | COCc1ccccc1C#CCCNc1ncnc2cc(Br)ccc12 [compound 320] |  | > 95
53 | COCc1ccccc1C#CCCNc1ncnc2c(Cl)cccc12 [compound 311] |  | 60 to 80
54 | Cc1ccc(C#CCCNc2ncnc3ccccc23)c(C)c1 [compound 180] |  | > 95
55 | C(#Cc1ccc2ncccc2c1)CCNc1ncnc2ccccc12 [compound 190] |  | 60 to 80
56 | COCc1ccccc1C#CCCNc1ncnc2ccc(Br)cc12 [compound 321] |  | > 95
57 | O=Cc1ccccc1C#CCCNc1ncnc2sccc12 [compound 48] |  | > 95
58 | COCc1ccccc1C#CCCNc1ncnc2ccc(-c3cccc(F)c3)cc12 [compound 335] |  | > 95
59 | COCc1ccccc1C#CCCNc1ncnc2cccc(F)c12 [compound 318] |  | > 95
60 | CCOC(OCC)c1ccccc1C#CCCNc1ncnc2ccccc12 [compound 150] |  | > 95
61 | COc1ccccc1C#CCC(C)Nc1ncnc2sccc12 (stereo not drawn) [compound 236] |  | 80 to 95
62 | Fc1ccc(Oc2nc(C#CCCNc3ncnc4ccccc34)cs2)cc1 [compound 226] | 60 to 80 | 
63 | Cc1ccccc1C#CCC(C)Nc1ncnc2sccc12 (stereo not drawn) [compound 239] |  | > 95

Row | Compound | mortality at 250 ppm [1] [%] | mortality at 250 ppm (Aphis gossypii) [%]
64 | COCc1ccccc1C#CCCNc1ncnc2ccsc12 [compound 49] |  | > 95
65 | COCOCc1ccccc1C#CCCNc1ncnc2ccccc12 [compound 148] |  | > 95
66 | CC(CC#Cc1cccc(C(F)(F)F)c1)Nc1ncnc2sccc12 (stereo not drawn) [compound 234] |  | > 95
67 | Fc1cccc2c(NCCC#Cc3ccccc3C(F)(F)F)ncnc12 [compound 306] |  | > 95
68 | Fc1cccc(C#CCCNc2ncnc3sccc23)c1 [compound 12] |  | 80 to 95
69 | CC(CC#Cc1ccc(Cl)c(C(F)(F)F)c1)Nc1ncnc2ccccc12 (stereo not drawn) [compound 284] |  | 80 to 95
70 | COc1ccc2cc(C#CCCNc3ncnc4ccccc34)ccc2c1 [compound 184] |  | 60 to 80
71 | CC(C)(C)C#CCCNc1ncnc2sccc12 [compound 8] |  | 80 to 95
72 | CC(CC#Cc1ccc(F)cc1)Nc1ncnc2sccc12 (stereo not drawn) [compound 230] |  | > 95
73 | C(#CCc1ccccc1)CCNc1ncnc2sccc12 [compound 9] |  | 60 to 80
74 | Fc1ccc(C#CCCNc2ncnc3ccccc23)c(C(F)(F)F)c1 [compound 169] |  | 80 to 95
75 | COCc1ccccc1C#CCCNc1ncnc2c(F)cccc12 [compound 315] |  | > 95
76 | CC(CC#Cc1ccccc1Cl)Nc1ncnc2ccccc12 (stereo not drawn) [compound 272] |  | > 95
77 | COc1ccc(C#CCC(C)Nc2ncnc3ccccc23)c(C(F)(F)F)c1 (stereo not drawn) [compound 287] |  | > 95
78 | Fc1ccc(C#CCCNc2ncnc3ccccc23)cn1 [compound 194] |  | 60 to 80
79 | C(#Cc1ccc2ccccc2n1)CCNc1ncnc2ccccc12 [compound 188] | 80 to 95 | 
80 | COC(OC)c1ccccc1C#CCCNc1ncnc2ccccc12 [compound 149] |  | > 95
81 | COCc1cc(C)ccc1C#CCCNc1ncnc(C)c1Cl [compound 361] |  | > 95
